Whole data set: some 33,000 sequences, median “E-score (-0.5 to 0.5)” near -0.056, cut for the highest 2% near 0.38. Some of the results follow.
molecular target: Stb4 (UniProt P50104); test: PBM E-score (8-mer binding enrichment) (E-score (-0.5 to 0.5)); higher = stronger / more preferred TF binding; most listed sequences are background and not binding sites; details: protein concentration: 200 nM; construct: GST-DNA-binding domain
Experimental: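 Universal 'all 10-mer' protein binding microarrays (Agilent AMADID 015681) probed with GST-tagged S. cerevisiae TFs (full-length or DBD) made by in vitro transcription/translation (PURExpress), about 100-200 nM. Bound TF was detected with fluorescent anti-GST. Each ungapped 8-mer (which stands for itself and its reverse complement) is scored by the PBM enrichment score (E-score), a modified Wilcoxon-Mann-Whitney statistic from -0.5 to +0.5, computed with the Universal PBM Analysis Suite. Scale: above 0.35 generally sequence-specific binding.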

| Sequence | PBM E-score |
| --- | --- |
| CGCTAATA | 0.0293 |
| ACTACCGG | 0.186 |
| GCAATGGA | -0.0896 |
| AAACAAGT | -0.188 |
| CTGGGGCC | -0.0199 |
| ACCACATC | 0.0652 |
| AACTTTGG | -0.105 |
| ATGTTGAG | -0.0742 |
| GCAATTCC | 0.163 |
| CCAAATCG | -0.0151 |
| CCTCAGAC | -0.0262 |
| GGGGTACA | -0.045 |
| ACAATACC | -0.00908 |
| AACAGGTG | -0.269 |
| ACCGTGAT | 0.0344 |
| ACCGGGTG | 0.258 |
| ACCTGACG | -0.264 |
| GCACCCCC | -0.0162 |
| CTGACCAA | -0.024 |
| AGCAACCT | -0.127 |
| GGGGAACC | -0.137 |
| TGGTCACA | 0.0975 |
| AGCAGTAC | 0.0047 |
| CTCTCGTA | -0.0374 |
| ACCACGTC | -0.107 |

| Sequence | PBM E-score |
| --- | --- |
| CTTGGGCC | -0.0676 |
| AAATATGG | -0.0857 |
| ATCAAGGG | -0.0462 |
| CAGGATTA | 0.00923 |
| GTATCAAC | 0.0997 |
| ACGACGAT | 0.0327 |
| CGAGCACC | 0.204 |
| TACGCATA | -0.0809 |
| CTTGTCGC | -0.0633 |
| TATCGAAA | -0.13 |
| ACTGAGAT | -0.258 |
| AGGGAACA | -0.067 |
| AACTAAAG | -0.256 |
| GCGCCCGC | -0.0138 |
| GCGATCCC | -0.018 |
| CCAGCGCG | -0.0531 |
| CATCGGTC | 0.114 |
| GCAAGAAC | -0.101 |
| TCAATTGA | 0.034 |
| CCTGACTC | -0.211 |
| CATCTTCA | -0.182 |
| CAGAGATG | -0.266 |
| AGACCTTC | -0.188 |
| GCCCATCA | -0.113 |
| AACTGAAA | -0.121 |

| Sequence | PBM E-score |
| --- | --- |
| CTCTCGCA | -0.148 |
| CCCAAGAC | -0.0533 |
| CCCTTGTA | -0.0961 |
| TCCGGGAA | 0.388 |
| CAGAGATC | -0.0651 |
| TAGGCACA | -0.135 |
| GTGATTTA | 0.124 |
| CCCTCACG | -0.167 |
| AATCGTGG | -0.218 |
| AATTTTTG | -0.191 |
| AGACGACG | -0.0786 |
| ATCCAGTA | -0.0376 |
| GCATGCCC | 0.012 |
| GGGTTGAC | -0.108 |
| AAAAGGAG | -0.0435 |
| CAGAAATA | -0.163 |
| CTCCGAAG | 0.413 |
| AACGGCAC | 0.105 |
| ATGCCCTC | -0.146 |
| GAGCTCGA | -0.0103 |
| ATCATCGC | -0.269 |
| CCTTTGTC | -0.141 |
| CTACAGAA | -0.155 |
| TCTAACCA | -0.181 |
| CGGCCGGA | 0.349 |

| Sequence | PBM E-score |
| --- | --- |
| CCTACAGC | -0.0731 |
| AAACATTA | -0.133 |
| CCGCTTAG | 0.134 |
| CCCACAGG | -0.217 |
| AAGTCAAA | -0.108 |
| TGAGGACA | -0.21 |
| AAGCACGG | 0.0998 |
| GCTCGCAC | 0.0901 |
| GCAGAATA | -0.0302 |
| CAACTCAC | -0.227 |
| ACGAGCCC | -0.198 |
| TGAACAAA | 0.021 |
| ATTCTATG | -0.00015 |
| AGGATATG | -0.156 |
| ATACCGAA | 0.392 |
| ATACGGGC | 0.155 |
| CAGTCTGG | -0.156 |
| ACGCACTA | -0.155 |
| CTTTGCCC | -0.0931 |
| AGCGCGGA | 0.224 |
| ATGTATGG | -0.277 |
| CCCCTGAA | -0.129 |
| ATCTATTA | 0.0372 |
| AGACCCCC | -0.0201 |
| CATCCAAG | -0.133 |

| Sequence | PBM E-score |
| --- | --- |
| CCTTCAAG | -0.097 |
| AGCACGAT | -0.207 |
| AAGGGTAG | 0.0126 |
| GCTAGTTA | 0.032 |
| ATAGTAGA | -0.0928 |
| ACGATGCA | -0.131 |
| AGTATCTG | -0.011 |
| ACTGTTGA | -0.199 |
| TATATGAA | -0.0698 |
| GAGGTATA | -0.159 |
| ATGTTCAA | 0.0011 |
| ACAATGCA | -0.0359 |
| CAGGTTGG | -0.0724 |
| CCGCACGG | 0.153 |
| CCGCCTTA | -0.0162 |
| CGAAAGCC | 0.0757 |
| CGTGGTTA | -0.233 |
| AAGACACG | 0.0111 |
| AGTCCGTC | 0.114 |
| AGTACTAA | -0.207 |
| AAGTTCCT | -0.00611 |
| AGATTCCA | -0.131 |
| TCTGGCCA | -0.244 |
| ATGGGGCG | -0.0357 |
| GCGATACC | -0.0864 |

| Sequence | PBM E-score |
| --- | --- |
| AGAACTGA | -0.162 |
| CCTTAGCA | -0.0552 |
| ATCGACGC | -0.126 |
| GGCCAGAC | 0.00928 |
| ATTTAGTA | 0.0191 |
| GGATTAAA | 0.146 |
| GCGGTTGA | 0.0648 |
| GGCCAACC | 0.127 |
| TATACGAA | -0.0052 |
| AATGATAA | 0.0517 |
| ACACTCCT | -0.00879 |
| AATTCCAC | 0.122 |
| AGGGAGTA | -0.146 |
| CACGTTGC | -0.0203 |
| AAGTTCAT | 0.0868 |
| GAGCGCGC | 0.00394 |
| GGACCCCC | 0.0372 |
| ACTTGCAC | -0.125 |
| AGACCACC | -0.18 |
| AGGCGGCC | 0.022 |
| AGGTCGAC | -0.121 |
| AAACGTAT | -0.0474 |
| ACCGTAAA | -0.0328 |
| ACTGGCAA | -0.184 |
| AAATGTGG | -0.0435 |

| Sequence | PBM E-score |
| --- | --- |
| GCGCAAAA | 0.00665 |
| CAAGGCAA | -0.217 |
| GGTACGTA | 0.125 |
| ACCCAAAA | -0.0695 |
| ACCCGGCG | 0.3 |
| TATATACA | -0.0996 |
| AGCAGACT | -0.168 |
| AGGGCGAT | -0.278 |
| CCATATCC | 0.177 |
| GCCTTCGC | -0.00246 |
| CGTGCGAA | -0.0361 |
| ACAGGCTG | -0.343 |
| GACAAGGC | -0.149 |
| ACGGGAAA | 0.276 |
| AATAACTG | -0.0326 |
| GCTCGAGC | -0.0154 |
| CTATTTCC | 0.1 |
| CAGACTGA | 0.00844 |
| ACATACGT | -0.164 |
| CACACCCC | 0.0433 |
| AGGGGGTG | -0.23 |
| ATAGGTCA | -0.153 |
| GAATTTAC | 0.0566 |
| ACAATGAC | -0.176 |
| CGCCTGAA | -0.114 |

| Sequence | PBM E-score |
| --- | --- |
| TATTAACA | -0.104 |
| AGAAGTGG | -0.00087 |
| AATGCGAG | -0.153 |
| GCACCTAA | -0.0958 |
| AGTCGGTG | -0.029 |
| CACGATGG | -0.257 |
| AAGGTAAA | 0.0558 |
| CGCGTCGC | -0.0788 |
| ACCATTAT | -0.0391 |
| TGACATAA | 0.00403 |
| AACAATCT | -0.0248 |
| ACCGCAGG | 0.0861 |
| AACTTCTT | -0.132 |
| AACATAGA | -0.00346 |
| CATGTGAC | -0.412 |
| ACGCGAAT | -0.164 |
| GGACTAGA | 0.0751 |
| AGATGACC | 0.00621 |
| CTTAACCA | -0.207 |
| ATGAAGGC | -0.131 |
| CGCCCTCA | -0.0542 |
| CGCAAGCA | -0.176 |
| ACATGTAT | -0.088 |
| TAAACGAA | -0.157 |
| CAGTTATG | -0.13 |

| Sequence | PBM E-score |
| --- | --- |
| AGGCGTCG | -0.0232 |
| CCCCGCCA | 0.232 |
| AGTATGCG | 0.0955 |
| AAATAATA | 0.132 |
| AACGTGCT | -0.139 |
| GCACCCGA | 0.434 |
| AGACTTAT | -0.205 |
| CGGCAGAC | 0.18 |
| AGCGGTTG | -0.124 |
| ACCAACGG | 0.166 |
| ATGGTGCC | 0.143 |
| AGCAGGGG | -0.051 |
| GGACCCGA | 0.386 |
| GTGACAAA | -0.175 |
| TCGTGAAA | -0.1 |
| TAAATACA | -0.0802 |
| TGTGCTAA | 0.111 |
| GGACTTTA | 0.156 |
| AACTCTCG | 0.0945 |
